# Assay results: the BET-seq Pho4 binding data (Le et al. 2018)
# This is one part of the list. The energies were worked out here from pooled read counts, against the library average; single values are noisy.
# Biological target: T1, Pho4 (S. cerevisiae) (UniProt P07270)
# T1 sequence: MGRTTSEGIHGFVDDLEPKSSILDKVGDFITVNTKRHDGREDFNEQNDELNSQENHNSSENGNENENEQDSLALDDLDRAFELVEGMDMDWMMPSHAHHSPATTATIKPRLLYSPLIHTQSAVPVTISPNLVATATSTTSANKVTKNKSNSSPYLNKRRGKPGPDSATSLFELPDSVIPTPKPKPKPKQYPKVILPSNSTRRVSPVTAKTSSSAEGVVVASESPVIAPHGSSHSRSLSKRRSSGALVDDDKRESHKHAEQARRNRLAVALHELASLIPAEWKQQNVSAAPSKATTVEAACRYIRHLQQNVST
# Assay: relative binding free energy (BET-seq); higher = weaker binding
# Conditions: reference: library average
row,Sequence,relative binding free energy [kcal/mol]
1,GGTTGCACGTGTTAGT,0.17
2,CTTGGCACGTGTGGTA,-0.07
3,GTTTGCACGTGTGATT,0.19
4,TATGGCACGTGAAAAT,0.09
5,GGTATCACGTGTTTTG,0.15
6,AGTATCACGTGATGGC,0.21
7,CCTGGCACGTGGTTTT,-0.06
8,GGCTTCACGTGGTAAT,0.24
9,GCGGACACGTGTTGTG,0
10,GATCGCACGTGCTGGG,0.06
11,ACTAACACGTGGTGGG,0
12,TTTTGCACGTGATGGA,0.13
13,TGTAACACGTGCATGT,-0.13
14,TGGGTCACGTGTAATA,0.32
15,CTAGGCACGTGTATTG,-0.12
16,GTGATCACGTGAGTTG,0.32
17,ATGGTCACGTGGGTTA,0.01
18,TTGGCCACGTGCGAGG,-0.04
19,GGGGTCACGTGTGGCG,0.15
20,CTTGACACGTGATATT,0.22
21,TTTTACACGTGTACAT,0.17

row,Sequence,relative binding free energy [kcal/mol]
1,CTATGCACGTGTGAGG,0.12
2,ATGTACACGTGTCTTG,0.04
3,AATGGCACGTGTAAGC,0.19
4,CTTTGCACGTGGGAGG,0.02
5,TTCCTCACGTGTTTGG,0.25
6,AGTAGCACGTGCTGGT,-0.33
7,TGTTGCACGTGGATAG,-0.01
8,AAGGACACGTGGGCAG,-0.05
9,ATGGGCACGTGTTAAT,-0.06
10,TTTAACACGTGTGGTA,-0.02
11,TGCTCCACGTGGGGGT,-0.1
12,AGCTTCACGTGGATTG,0.04
13,ATGAGCACGTGAATTG,0.21
14,CCATGCACGTGTTTGT,-0.04
15,GAGTACACGTGTGATT,0.19
16,TTTGTCACGTGCCAGT,0.09
17,TTGCTCACGTGGAGTG,0.22
18,TGATACACGTGGTAGG,-0.09
19,GGATGCACGTGGTGCG,-0.19
20,GTCTGCACGTGAGGTG,0.25
21,TATTTCACGTGAGGCG,0.44

row,Sequence,relative binding free energy [kcal/mol]
1,GTCATCACGTGGTGAG,0.27
2,GGTAACACGTGATATT,0.33
3,ATATGCACGTGACTTG,-0.04
4,CGTGGCACGTGAATGT,0.2
5,AGGAGCACGTGAAGGC,0.14
6,TTCAGCACGTGTTGAG,-0.07
7,ACGTTCACGTGGGTTT,0.13
8,AAGGGCACGTGCGCTT,-0.07
9,TTGAGCACGTGAGTCT,0.19
10,AATGACACGTGCGTGT,0.05
11,AGAGTCACGTGGGGAG,0.06
12,TCTAGCACGTGGAGGT,-0.11
13,TTCGTCACGTGAGGGG,0.3
14,CGTTGCACGTGAATTG,0.46
15,TTTTCCACGTGTGTGC,0.19
16,GTAGGCACGTGCTGAT,-0.12
17,ATAGTCACGTGGAGGC,0.06
18,AGTAGCACGTGGTATT,-0.19
19,GGTGACACGTGGGCGC,-0.19
20,CGTTTCACGTGATTTG,0.3
21,TTACTCACGTGGCGTG,-0.04
